{"source": "patent US20140323413", "target": "DQ elastin", "data": [{"protein": "porcine pancreas elastase (protein) VVGGTEAQRNSWPSQISLQYRSGSSWAHTCGGTLIRQNWVMTAAHCVDRELTFRVVVGEHNLNQNDGTEQYVGVQKIVVHPYWNTDDVAAGYDIALLRLAQSVTLNSYVQLGVLPRAGTILANNSPCYITGWGLTRTNGQLAQTLQQAYLPTVDYAICSSSSYWGSTVKNSMVCAGGDGVRSGCQGDSGGPLHCLVNGQYAVHGVTSFVSRLGCNVTRKPTVFTRVSAYISWINNVIASN", "values": [{"measurement": "specific activity, in vitro elastin degradation assay", "value": "135±5.5 u/mg, n=4"}, {"measurement": "stated: degrades (fluorescence released from DQ elastin)", "value": "bar 'Elastase' rises from about 150 relative fluorescence units at 0 hr to about 4100 at 2 hr"}]}]}
